Results published in the supplement of paper PMC12632987.
Whole data set: some 1,800 sequences, median “median log2 fold change of GCK-ALFA target abundance (FLAG IP / Myc IP barcode read proportion)” near 0.14, cut for the lowest 2% near -0.84. Some of the results follow.

T1: TRAF2, Q12933
T1 chain: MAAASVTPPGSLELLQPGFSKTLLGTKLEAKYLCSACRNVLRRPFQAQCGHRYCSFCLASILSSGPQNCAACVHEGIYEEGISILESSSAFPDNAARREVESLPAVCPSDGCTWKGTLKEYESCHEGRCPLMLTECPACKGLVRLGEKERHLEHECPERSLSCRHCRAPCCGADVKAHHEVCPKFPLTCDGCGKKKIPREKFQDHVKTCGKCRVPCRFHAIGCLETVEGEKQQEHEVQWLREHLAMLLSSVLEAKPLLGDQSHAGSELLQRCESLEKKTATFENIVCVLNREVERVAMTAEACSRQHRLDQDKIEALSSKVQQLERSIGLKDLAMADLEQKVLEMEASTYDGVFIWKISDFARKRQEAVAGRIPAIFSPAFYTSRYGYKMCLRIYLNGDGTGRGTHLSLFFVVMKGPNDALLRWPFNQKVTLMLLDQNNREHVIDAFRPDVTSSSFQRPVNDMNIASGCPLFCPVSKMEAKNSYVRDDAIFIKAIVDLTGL

B1: traf2_out_6_156_2450 (protein)
chain: MIEEIFEKAVKEIEELIKKLAAAPESKKIAYINKIAGTFYKALQELRESGASLEEIEEFVERLLKKAEELANEAGLDEDTKNLLLSTLSAVGEVAIANAK
B2: traf2_out_18_147_1813 (protein)
chain: SWREAIDKIADLSEKIGKLMDEIAKLTGKEEETQKLRDILTSTSVSEEEKKEAVEKAKEKYKKEGKEEAVKKLEEALKLSKERKKAAKEANKLINEEEAK
B3: traf2_out_17_178_1732 (protein)
chain: SKEEILKEISEYADKMLDVNKEAMDKLKELAEKEGILTPELKKRLDEVASTSNLYALEEVANEIIKLSKNKEEVQKLLDETVKKLTELRKKIQEAVEKLE
B4: traf2_out_13_95_1085 (protein)
chain: SAETNAKIMAIADKAQDQIDAILQALAEQVAGDPELAAAVQQALQLAQTQGVNEALHLLEQLAAANPEHKELLDAAIAQIKAVKAQASKEISALLKEEEA
B5: traf2_out_15_180_1329 (protein)
chain: MTEEELEKRIELASEAADKVQDHLDALLAAHPELSEEEKALLRAAARAILTLLINGEYEEAKKHLEATKAKVNPLTAAVLEEIYKFAKEVVEKAKEELKK
B6: traf2_out_1_27_1014 (protein)
chain: SDEELTKLIKETDKKIAEVSLEEAKKVVKEALKEAAKLGPEDAMVLANTLIASQLDEERLKAIAEAAVEAFKELGFPEEDIERLKRIAESVLKLNKKVLA
B7: traf2_out_17_162_1554 (protein)
chain: SELEEEKKRLEEELKELKKKLKELKEKLKELEKLSKEELTDLLVEASEAKRRALELAERLKELEEEIGEEEAGKLREEAEKIAEELQKIANKIYKEIEKK
B8: traf2_out_14_149_1257 (protein)
chain: SATEERKKALREAREIFREIAKMLEEAIKAGSTELDKEKLKELLKKAREILSKQGFVLSHLLAMEDLLEKTEEFTKEKLEELLELARRAIESLEVLEEML

Biological target: T1, TRAF2, Q12933
Experiment: median log2 fold change of GCK-ALFA target abundance (FLAG IP / Myc IP barcode read proportion) (log2 ratio); each designed protein is fused to an ALFA-tag nanobody in HEK293 cells to bring the named protein to FLAG-tagged glucokinase (GCK); Myc marks an untargeted standard; higher = target protein stabilised (more abundant)
Conditions: target protein: 3xFLAG-MCP-GCK-ALFA reporter; HEK293 landing pad (RPLP)
Outline: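 Binders fused to an ALFA nanobody were recombined as a library into HEK293 landing-pad cells, which were induced with 2 μg mL^−1 doxycycline and then transfected to express a FLAG-tagged target and a Myc-tagged standard. After 48 h, circular RNA barcodes recovered by anti-FLAG and anti-Myc immunoprecipitation of lysates were reverse transcribed, amplified and sequenced. Each binder's target abundance is the median log2 ratio of FLAG to Myc barcode read proportions, from barcodes present at ≥10^−7 in both replicates, binders carrying ≥3 barcodes per replicate, a 10^−6 pseudocount and pooled replicates.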

Binder	median log2 fold change
B1	0.00905
B2	0.327
B3	0.129
B4	0.21
B5	0.29
B6	0.337
B7	0.337
B8	0.276
